According to PubChem BioAssay AID624170 (National Center for Advancing Translational Sciences (NCATS), 2012):
The campaign covered roughly 410,000 compounds. About 850 (0.21%) were called active. Inconclusive means that the source gave no clear call. Such entries were picked first, then a sample of the others. Calls come from the whole dose curve; as a rule, active = well fitted inhibition curve with a large enough effect; inconclusive = small, poorly fitted or top-dose-only effect, or another doubt; inactive = no such curve, though single readings can be large or run the other way. Where the call is inconclusive, the potency comes from a doubtful curve fit.

What follows are molecules tested against Glutaminase kidney isoform, mitochondrial (Homo sapiens) (UniProt O94925) (assay: qHTS for Inhibitors of Glutaminase (GLS)). Conditions: GLS enzymatic activity, qHTS titration; series mostly up to 45.5 µM.
Method in brief: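 Compounds were pin-transferred onto hKGA, after which L-glutamine (1 mM solution) and a detection mix of glutamate oxidase, HRP and Amplex Red were added. Initial and 30 min RT fluorescence reads were collected.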
Potency is the fitted concentration of half-maximal effect; tags give direction and shape of the fitted curve.

UniProt O94925, sequence (O94925 whole entry, looked up, canonical isoform): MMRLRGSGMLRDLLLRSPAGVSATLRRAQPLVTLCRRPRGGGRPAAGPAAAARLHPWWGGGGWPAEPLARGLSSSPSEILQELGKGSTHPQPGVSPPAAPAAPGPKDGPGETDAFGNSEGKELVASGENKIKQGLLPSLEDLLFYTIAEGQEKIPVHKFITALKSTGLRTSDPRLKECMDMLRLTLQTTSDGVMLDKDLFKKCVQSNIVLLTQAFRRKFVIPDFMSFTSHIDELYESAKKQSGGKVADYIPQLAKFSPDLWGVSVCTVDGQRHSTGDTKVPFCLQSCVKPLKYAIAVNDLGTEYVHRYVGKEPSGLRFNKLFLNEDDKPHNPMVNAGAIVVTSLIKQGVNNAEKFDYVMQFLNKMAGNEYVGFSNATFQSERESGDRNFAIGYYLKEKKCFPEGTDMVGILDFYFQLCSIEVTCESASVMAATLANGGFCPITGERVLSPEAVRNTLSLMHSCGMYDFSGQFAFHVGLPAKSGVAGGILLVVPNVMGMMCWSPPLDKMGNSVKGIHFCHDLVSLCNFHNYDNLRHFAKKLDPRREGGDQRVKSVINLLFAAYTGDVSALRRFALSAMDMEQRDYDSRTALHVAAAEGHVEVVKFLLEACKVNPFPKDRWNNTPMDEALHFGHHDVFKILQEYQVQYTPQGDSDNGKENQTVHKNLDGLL

Potency, inactive:
CCc1ccc(S(=O)(=O)/N=C2\C=C(Nc3ccc(C(=O)O)cc3)C(=O)c3ccccc32)cc1
COc1ccc(OC)c(NC(=O)c2c(C)oc3ncnc(N4CCOCC4)c23)c1
CC(C)OCCCn1c(=O)c2ccccc2n2c(CCC(=O)NC3CCN(Cc4ccccc4)CC3)nnc12
O=C1COc2ccc(-c3csc(NCCc4ccccc4)n3)cc2N1
CC1=CCC(C(C)(C)O)CC1 (configuration not stated)
CCOC(=O)c1[nH]c(C)c(C(=O)Nc2ccc(C)c(F)c2)c1C
CC(C)(C)C(=O)Nc1cc(S(=O)(=O)Nc2ccc(Cl)cc2)ccc1Cl
CCOc1ccc(-c2nc(C#N)c(N3CCCCCC3)o2)cc1
CC1CCCN(C(=O)COC(=O)c2ccc3[nH]c4c(c3c2)CCCC4)C1 (configuration not stated)
CCc1ccccc1N(CC(=O)NCc1ccco1)C(=O)CCC(=O)Nc1ccccn1
Cc1ccc(C)c(C(=O)CSc2nc3cc(C(=O)NC4CCCC4)ccc3c(=O)n2CC2CCCO2)c1 (configuration not stated)
Cc1ccc(-n2nc3c(N4CCC(C(=O)NCCC(C)C)CC4)nnc(C)c3c2C)cc1
COC(=O)c1cccc(NC(=O)c2ccco2)c1
CCN(CC)S(=O)(=O)c1cccc(NC(=O)COC(=O)CCc2nc3ccccc3s2)c1
O=C(COc1coc(CN2CCc3ccccc3C2)cc1=O)Nc1ccc([N+](=O)[O-])cc1
COc1cccc(CNS(=O)(=O)c2ccccc2Br)c1OC

Potency, active:
COC1=C(Nc2ccc(O)cc2)C(=O)c2ccccc2C1=O 7.94 µM
CC(C)CC1=C/C(=C/c2ccc(-c3ccccc3)o2)C(=O)O1 11.2 µM

Potency, inconclusive:
CCc1nnc(NC(=O)C2CC(=O)N(c3ccc4c(c3)OCCO4)C2)s1 (configuration not stated) 31.6 µM [inhibitor, partial curve, poor fit]
CCS(=O)(=O)N1CCC(C(=O)O)CC1 3.55 µM [inhibitor, single point]
CN1CCC/C1=C1/C(=O)N(c2ccccc2)N=C1NC(=O)Nc1cccc(Cl)c1 35.5 µM [inhibitor, single point]
NC(=O)c1cc(-c2csc(NCCc3ccccc3)n2)ccc1O 35.5 µM [inhibitor, single point]
Cn1c(SCC(=O)Nc2nncs2)nnc1C1CC1 35.5 µM [inhibitor, single point]
O=C(O)/C=C/C(=O)NCCCc1ccccc1 25.1 µM [inhibitor, single point]
CCOc1ccc(NC(=O)C2CCN(C(=O)NC3CCCCC3)CC2)cc1 35.5 µM [inhibitor, partial curve, poor fit]
C=CCN1C=C2C(=O)C(C)(OC(=O)c3cnc4ccccc4n3)C(=O)C=C2C=C1/C=C/COC (configuration not stated) 25.1 µM [inhibitor, single point]
Nc1nc(SCc2ccccc2)c2ncn(C3OC(CO)C(O)C3O)c2n1 (configuration not stated) 35.5 µM [inhibitor, single point]
O=C(CSc1nc2c(cnn2-c2ccc(F)cc2)c(=O)[nH]1)Nc1ccccc1C(F)(F)F 35.5 µM [inhibitor, partial curve, poor fit]
COC(=O)C1=C(CSc2nnnn2C)NC(=O)NC1c1cc(C)ccc1C (configuration not stated) 0.631 µM [inhibitor, partial curve, poor fit]
C/C(=N\NC(=O)c1nnn(-c2nonc2N)c1CSc1ccccc1)c1ccc2c(c1)OCO2 25.1 µM [inhibitor, single point]
Nc1[nH]n(-c2ccccc2)c(=O)c1N=Nc1ccc2c(c1)OCCO2 22.4 µM [inhibitor, partial curve, poor fit]
Cc1cc(C)c(NC(=O)OCCN2CCOCC2)c(C)c1 35.5 µM [inhibitor, single point]
CCOC(=O)N1CCN(S(=O)(=O)c2ccc3c(c2)CCN3C(=O)CC)CC1 17.8 µM [inhibitor, single point]
Cc1ccc2nc(Cl)c(/C=N/Nc3ccc(C(=O)O)cc3)cc2c1 35.5 µM [inhibitor, single point]
CCOC(=O)Cc1csc(NC(=O)NC2(C(F)(F)F)Oc3ccc(Cl)cc3O2)n1 (configuration not stated) 35.5 µM [inhibitor, single point]
COc1ccc(N2CCN(C(=O)c3oc4ccccc4c3C)CC2)cc1 22.4 µM [inhibitor, single point]
O=c1[nH]c(=S)[nH]c2c1C(c1ccc(Br)cc1)c1c([nH]c(=S)[nH]c1=O)O2 35.5 µM [inhibitor, single point]
CCOc1ccccc1-n1nnnc1SCC(=O)NC(=O)NCc1ccco1 25.1 µM [inhibitor, single point]
CSc1ccccc1NC(=O)C(=O)c1c[nH]c2ccccc12 5.62 µM [inhibitor, single point]
O=C(Nc1sc2c(c1C(=O)O)CCCCC2)c1cccs1 31.6 µM [inhibitor, single point]
CCCCNC(=O)CN1CCN(c2ncc(NC(=O)c3ccc(Cl)cc3)cc2C(=O)O)CC1 22.4 µM [inhibitor, single point]
CCCn1c(SCC(=O)Nc2ccccc2CC)nnc1C(C)C 35.5 µM [inhibitor, single point]
CCOC(=O)c1sc(NC(=O)C(C)C)c(C#N)c1C 1.78 µM [inhibitor, full curve, poor fit]
O=C(c1n[nH]c2ccccc12)N1CCCCC1 6.31 µM [inhibitor, single point]
CC(C)NC(=O)c1sc(=S)n2c1[nH]c(=O)c1ccc(C(=O)NCCc3ccc(Cl)cc3)cc12 35.5 µM [inhibitor, single point]
CCOC(=O)c1c(C)n(C)c2ccc(O)c(CN3CCN(C)CC3)c12 6.31 µM [inhibitor, single point]
Cc1ccc(-c2cc(C(=O)N3CCN(c4ncccn4)CC3)c3cc(Br)ccc3n2)o1 7.08 µM [inhibitor, partial curve, poor fit]
Cc1ccc2c(nc3s/c(=C\c4ccc(-c5ccccc5C(=O)O)o4)c(=O)n32)c1C 25.1 µM [inhibitor, single point]
COC(=O)c1cc(C(=O)OC)n(Cc2ccc(C)cc2)c1C 22.4 µM [inhibitor, single point]
CCN(CC)c1ccc(Nc2nc(-c3cccnc3)cs2)cc1 35.5 µM [inhibitor, single point]
Cc1ccc(-c2csc3ncnc(Nc4ccc(C(=O)O)cc4)c23)cc1 35.5 µM [inhibitor, partial curve, poor fit]
COc1ccc(CNC(=O)C2CCN(S(=O)(=O)c3ccc4c(c3)N(C(C)=O)CCO4)CC2)cc1 22.4 µM [inhibitor, single point]
COCCCNCC#CCOc1ccc(OC)cc1 12.6 µM [inhibitor, single point]
COC(=O)Cn1nc(-c2ccccc2)c2ccccc2c1=O 35.5 µM [inhibitor, single point]
Cc1ccc(-n2nc3c(N4CCC(C(=O)NCc5cccc(F)c5)CC4)nnc(C)c3c2C)cc1 22.4 µM [inhibitor, single point]
COc1ccc(NCCC(O)c2ccc(Cl)cc2)cc1 (configuration not stated) 12.6 µM [inhibitor, partial curve]
O=S(=O)(c1ccc(=S)[nH]c1)N1CCN(Cc2ccccc2)CC1 22.4 µM [inhibitor, partial curve, poor fit]
O=C(O)CNc1nc(Cl)ccc1[N+](=O)[O-] 3.98 µM [inhibitor, single point]
Cc1ccc(NC(=O)COCc2cc(-c3cccs3)on2)cc1Cl 5.62 µM [inhibitor, single point]
COc1ccc(/C=C(\CC(=O)O)c2nc3ccccc3s2)cc1O 11.2 µM [inhibitor, single point]
Nc1cccc(Nc2nc(OC(C(F)(F)F)C(F)(F)F)nc(OC(C(F)(F)F)C(F)(F)F)n2)c1 25.1 µM [inhibitor, single point]
COc1ccc(/C=N/NC(=O)c2ccc(O)cc2O)cc1CSc1ccccn1 35.5 µM [inhibitor, single point]
Cc1cc(O)c(C(C)C)cc1N=Nc1ccccc1C(=O)O 31.6 µM [inhibitor, single point]
Cc1ccc(C)c(NC(=O)CCc2ccc(S(=O)(=O)NC3CCCCC3)cc2)c1 35.5 µM [inhibitor, single point]
O=[N+]([O-])c1cc2c(c3cccnc13)COCO2 17.8 µM [inhibitor, single point]
O=C1CN(c2ccc(F)cc2)C(=S)N1c1ccccc1 12.6 µM [inhibitor, single point]
Cc1ccsc1C(=O)c1sccc1C 6.31 µM [inhibitor, single point]
